A word on the % Inhibition: it is the relative decrease from the control value, in per cent.

Molecules are shown by their SMILES. Among all 150,000 compounds or so, about 540 (0.36%) showed an effect of 50% or more. The list shows a part of the results.

For the assay, the system named is Plasmodium falciparum. Put plainly: Primary screen in NF54 nanoGlo assay, in single point, at 2uM, 72h; a lower Z score goes with more inhibition. The settings on record: timepoint 72 hour. The assay is classed as functional, Erythrocyte.
Consider `CCC1CCCCN1CCN1C(=O)[C@@H]2C(C(=O)Nc3cccc(C)c3)[C@@H]3C=C[C@]2(O3)C1C(=O)NC1CCCC(C)C1C` (stereo partly specified), for which the “% Inhibition” value was 4% and the Z score was -0.61.
`Cc1n[nH]c(N2CCN(C(=O)CC3CC4CCC3C4)CC2)n1` (stereo unspecified): the “% Inhibition” value was 3% and the Z score was -0.63.
Turning to `Cc1ccc(-n2ccnc2)c(C(=O)NCc2cnc3n2CCCC3)c1`, the “% Inhibition” value is on record as 2% and the Z score is reported as -0.34.
Turning to `CCn1cc(-c2cc(C(=O)N3CCC[C@H](C)C3)c3ccc(C)c(C)c3n2)cn1`, the “% Inhibition” value came out at 3% and the Z score is reported as -0.42.
On to `OC1(C(F)(F)F)C2CCCCC2=NN1c1nc(-c2ccncc2)cs1` (stereo unspecified), for which the “% Inhibition” value is listed as -35% and the Z score was determined as 4.16.
For `O=C1CCCN1c1cc(CNS(=O)(=O)c2ccc(-n3cccn3)cc2)ccn1` the same measures were -23% and 3.52.
With `CS(=O)(=O)NCc1ccc(C(=O)NC[C@H]2CCC[C@@H](CO)C2)o1`, the “% Inhibition” value is recorded as -33% and the Z score was determined as 3.91.
For `CC(C)(C)OC(=O)NCCC[C@H](NCCCO)c1ccccc1` the same measures were 1% and -0.12.
For `CCN(Cc1ccc(OC)cc1)Cc1cc(=O)c2cc(F)ccc2[nH]1` the same measures were -12% and 2.04.
Consider `CCn1c(CN2CCCN(C(N)=O)CC2)nc2cc(F)ccc21`, for which the “% Inhibition” value was -3% and the Z score is listed as 0.61.
For `Cc1nc(C(=O)N2CC[C@]34C(=O)N(Cc5cn(nn5)CCCOc5cccc(c5)[C@H]23)c2ccccc24)c[nH]1` the same measures were -9% and 1.74.
For `O=C(CCC(F)(F)F)N1CCN(Cc2nnc[nH]2)CC1` the same measures were 5% and -1.08.
Take `CC#CCN1CCOC(C(C)NC(=O)OC(C)(C)C)C1` (stereo unspecified): the “% Inhibition” value was -5% and the Z score was determined as 0.96.
Turning to `COCCNC(=O)C[C@H](c1ccc(OCc2ccccc2)c(OC)c1)c1cn(Cc2ccc(F)cc2)c2ccccc12`, the “% Inhibition” value is -12% and the Z score turned out to be 1.54.
As for `O=C(Nc1cccc(Br)c1)N1CCN(c2nc3cc(F)ccc3n3cccc23)CC1`, the “% Inhibition” value is 3% and the Z score is listed as -0.59.
On the same counts, the results for `CC(=O)NCCCN(C)c1ncccc1-c1nc(C)no1` are -12% and 2.21.
In the case of `CCOC(=O)[C@H]1CCCC[C@H]1NS(=O)(=O)C1CC1`, the “% Inhibition” value was -12% and the Z score is recorded as 2.27.
For `Cn1c(=O)c(-c2nc(-c3ccc(Br)cc3)no2)c(O)c2ccc(F)cc21` the same measures were -10% and 1.32.
As to `CCOC(=O)c1noc2nc(C)nc(NC(C)C)c12`, the “% Inhibition” value is recorded as -10% and the Z score stood at 1.82.
For `Cc1cccnc1[C@H](C)NC(=O)c1coc(COc2cccc3cccnc23)n1` the same measures were -13% and 1.65.
Consider `CC[C@H](NC(=O)c1cc(Cn2cccn2)on1)c1nnc[nH]1`, for which the “% Inhibition” value is listed as -2% and the Z score is 0.39.
On the same counts, the results for `CCCc1noc(Cn2cncc(Br)c2=O)n1` are 4% and -0.62.
On the same counts, the results for `CC(C)C(=O)c1ccc2c(c1NC(=O)Cc1ccccc1)OCCO2` are -9% and 0.89.
As for `Cc1nc(C(=O)N2CCC(COc3cc(Cl)cc(Cl)c3)CC2)c[nH]1`, the “% Inhibition” value is recorded as -12% and the Z score amounted to 2.23.
Take `Cc1c(CNC(=O)c2cc3[nH]cnc3cc2F)cnn1C`: the “% Inhibition” value was -10% and the Z score came to 1.05.
Take `CC1CCC(C(C)C)C(OC(=O)Nc2ccccc2)C1` (stereo unspecified): the “% Inhibition” value is given as 1% and the Z score was -0.21.
For `Cc1csc(Nc2ccc(NC(=O)CCc3cscn3)cc2)n1` the same measures were -15% and 2.19.
In the case of `CNc1nc(C)cc(-c2ccnc3c2ccn3C)n1`, the “% Inhibition” value is reported as -5% and the Z score stood at 0.6.
On the same counts, the results for `O=C(Nc1ccc2c(c1)CCC2)[C@@H]1COc2ccccc2O1` are -6% and 0.9.
For `COCc1noc(CCC2CN(C(=O)OC(C)(C)C)C2)n1` the same measures were -8% and 1.08.
On the same counts, the results for `CCn1nc(C)cc1C(=O)O[C@@H](C)c1nc2ccccc2n1C` are -7% and 1.02.
As to `CCc1c(C(=O)N2CC[C@H](n3cc(C)cn3)C2)cnn1CCC(C)C`, the “% Inhibition” value was -11% and the Z score is 1.42.
On the same counts, the results for `COc1ccc(-n2cccn2)c(CN2CCC[C@H](c3nc(C)n[nH]3)C2)c1` are 3% and -0.49.
For `Cc1ccc(-n2nnnc2CNS(=O)(=O)c2cccnc2)cc1` the same measures were -11% and 2.23.
As for `CN(C)[C@H]1CN(c2nc3c(cc2C(=O)O)CCC3)C[C@@H]1C1CC1`, the “% Inhibition” value is listed as 0% and the Z score is 0.01.
On to `Cc1noc(-c2cccnc2N2CC[C@H](N3CCCC3)C2)n1`, for which the “% Inhibition” value is -1% and the Z score is on record as 0.17.
On the same counts, the results for `COC(=O)[C@@H](NCc1ccc(C(N)=O)cc1)C(C)(C)C` are -2% and 0.25.
For `Cc1nc(C)c(COc2ccc(-n3cncn3)cc2)s1` the same measures were -5% and 0.61.
For `COc1cccc(CNC[C@H](c2ccnn2C)C(C)C)n1` the same measures were -6% and 0.73.
For the compound `CCOC(=O)C1CCN(C(=O)CN2C(=O)N[C@](C)(c3ccc(F)cc3F)C2=O)CC1`, the “% Inhibition” value is -5% and the Z score is on record as 0.82.
For `NC(=O)[C@@H]1Cc2ccccc2N1Cc1nc(CC(F)(F)F)no1` the same measures were 26% and -2.96.
For `COc1ccc(-c2cc(N)nc(N3CCCC3)n2)cc1F` the same measures were -5% and 0.71.
`Cc1cc(OCC(=O)Nc2ccc(N(C)C)nc2)no1`: the “% Inhibition” value is reported as -8% and the Z score was 1.07.
For `Cc1cccc(OCc2nc(C)c(C(=O)NC3CCCCC3)s2)c1` the same measures were 0% and 0.01.
Take `COc1ccc(-c2cnc3ncnn3c2N2CCCN(S(=O)(=O)c3cc(F)cc(F)c3)CC2)cc1OC`: the “% Inhibition” value is on record as -9% and the Z score is given as 0.91.
For `CCc1cccc(NC(=O)c2cn(Cc3ccc(NC(=O)c4ccc(C)c(C)c4)cc3)cn2)c1` the same measures were -16% and 1.9.
In the case of `Cc1ccc(-n2nnnc2-c2cnc3cc4c(cc3c2C)OCO4)cc1`, the “% Inhibition” value worked out at 34% and the Z score is -4.36.
Regarding `CCOc1ccccc1N1C[C@@H](c2nc3ccccc3n2CCN2CCOCC2)CC1=O`, the “% Inhibition” value was -16% and the Z score came to 1.51.
On the same counts, the results for `Cc1cc(Cc2ccc(S(=O)(=O)N3CCN(c4ccccc4)CC3)cc2)c(=O)[nH]n1` are 4% and -0.37.
For `CCc1ccc(-c2cc3c(=O)n(CC(=O)N4CCCC4)ncn3n2)cc1`, the “% Inhibition” value is reported as -14% and the Z score came out at 1.2.
On the same counts, the results for `Cc1ncn(CC(=O)N2CC(n3cc(-c4ccccc4)nn3)C2)c(=O)c1C` are -19% and 2.45.
On the same counts, the results for `O=C(O)c1cn(-c2nccs2)c2c(F)c(Nc3ccccc3)c(F)cc2c1=O` are 33% and -3.7.
For `Cc1ccccc1OCCOc1ccc(Oc2nc(N(C)C)nc(N3CCCC3)n2)nn1` the same measures were -16% and 1.91.
Turning to `O=C(c1cc2occc2c(Nc2ccc(F)cc2)n1)N1CCN(C(=O)c2ccco2)CC1`, the “% Inhibition” value is on record as -19% and the Z score worked out at 1.87.
On the same counts, the results for `CC(=O)N1CCN(Cc2ccccc2NC(=O)Cc2ccc(C)nc2)CC1` are -6% and 1.11.
As to `Cc1nccn1C[C@H]1CCCN(C(=O)CCc2nc3ccccc3s2)C1`, the “% Inhibition” value is listed as -6% and the Z score amounted to 1.14.
For `Cc1cn2nc(C(=O)N3CCN(C(=O)c4ccco4)CC3)cc2c(N2CCCC2)n1` the same measures were 5% and -0.7.
As to `CN(C)C1(CNCc2[nH]c3ccccc3c2Cl)CCCCC1`, the “% Inhibition” value is reported as -1% and the Z score amounted to 0.08.
As for `CCNC(=O)[C@@H]1CCCN1C(=O)c1cccc(NS(=O)(=O)c2ccc(C)cc2C)c1`, the “% Inhibition” value is 18% and the Z score was -2.14.
For `CCNc1cc(CNc2ncc(F)cn2)ccn1` the same measures were 10% and -1.19.
For the compound `NC(=O)[C@H]1CCCN(CCNc2ncnc3c2Cc2ccccc2OC3)C1`, the “% Inhibition” value was -8% and the Z score was 1.62.
On the same counts, the results for `Cc1cc(Br)cc(C(=O)N(C)C[C@H](O)C(F)(F)F)c1` are -3% and 0.31.
For `c1cnc(NCc2nc3c([nH]2)CCCC3)cn1` the same measures were -8% and 1.52.
Take `C[C@H](O)c1cnc(CNC2(c3cccc(Cl)c3)CCCC2)s1`: the “% Inhibition” value is given as 13% and the Z score is -1.7.
As for `O=C1C[C@H](N2CCC3(CC2)OCCO3)C(=O)N1c1ccc(Cl)cc1`, the “% Inhibition” value is recorded as -6% and the Z score worked out at 0.84.
For `O=C1OC[C@@H]2CCNCc3ccc(F)cc3N12` the same measures were -10% and 1.56.
On the same counts, the results for `COC(c1nc(-c2cc(Br)c3ccccc3c2)no1)C1CCOC1` (stereo unspecified) are -6% and 1.15.
For the compound `O=C(NCC1(c2ccccc2)CC1)N[C@H](c1nccs1)C1CC1`, the “% Inhibition” value is listed as -6% and the Z score amounted to 0.67.
For `CCc1nnc2n1CCN(C(=O)c1cc3ccccc3o1)C2` the same measures were 9% and -1.52.
On to `Cc1ccccc1N1C[C@@H](c2nc(C(C)C)no2)CC1=O`, for which the “% Inhibition” value is on record as -7% and the Z score was 0.84.
Take `Cc1nc(C(=O)N2CCC(c3nc4c(s3)CCC4)CC2)no1`: the “% Inhibition” value is -1% and the Z score was 0.25.
For the compound `O=C(CCN1CCN(Cc2ccccc2)C(=O)C1=O)NCc1ccc2c(c1)OCO2`, the “% Inhibition” value is -9% and the Z score is on record as 1.21.
For `Cc1cccnc1NC(=O)C1CCCN(CC(O)c2ccc(F)c(F)c2)C1` (stereo unspecified) the same measures were -12% and 1.25.
On the same counts, the results for `CCc1ccc(CN2CCC([C@]3(Cc4cccc(OC)c4)NC(=O)N(C)C3=O)CC2)o1` are -12% and 1.61.
For `Cc1ccc(NC(=O)Nc2ccc(-c3nc(-c4cc(C)ccc4C)co3)cc2)cc1` the same measures were -9% and 1.09.
In the case of `Cc1cc(S(=O)(=O)NCC2(N)CCCCC2)c(C)s1`, the “% Inhibition” value is given as -11% and the Z score is given as 1.12.
On the same counts, the results for `O=C([C@@H]1COc2ccccc21)N1CCC(OCc2ccc(F)cc2)CC1` are 6% and -0.8.
On the same counts, the results for `COc1ccc(OCc2nc(C(=O)N3CC[C@H]3c3cccs3)co2)cc1` are -16% and 2.08.
For `Cc1ccsc1CN(C)Cc1ccccc1-c1nnn[nH]1` the same measures were -13% and 2.6.
As to `Nc1ncnc2[nH]nc(-c3ccc(Oc4ccccc4)cc3)c12`, the “% Inhibition” value is recorded as 14% and the Z score is reported as -1.33.
For `CC1CN(C(=O)c2cc(F)cc3c(=O)c4cc(F)ccc4[nH]c23)CC(C)O1` (stereo unspecified) the same measures were -10% and 1.65.
On the same counts, the results for `CCC1=NO[C@@H](CNC(=O)c2cccc(-c3nccn3C(C)C)c2)C1` are -12% and 1.15.
On the same counts, the results for `Cc1ccc2nc3c(cc2c1)CCN3C(=O)C(C)C` are -10% and 1.11.

These data come from ChEMBL document CHEMBL4888484, “Replenishing the malaria drug discovery pipeline: Screening and hit evaluation of the MMV Hit Generation Library 1 (HGL1) against asexual blood stage Plasmodium falciparum ,using a nano luciferase reporter read-out” (2022).
